From paper PMC6919601, “Identification of Plasmodium dipeptidyl aminopeptidase allosteric inhibitors by high throughput screening” (PLoS ONE, 2019)
The whole screen tested about 110,000 compounds, of which about 230 (0.21%) showed an effect of 50% or more. This is one part of the list.

target: DPAP1 (Plasmodium falciparum, UniProt Q8IIJ9); experiment: primary screen, percent inhibition; read by cleavage of a fluorogenic dipeptide substrate; higher = more effect of the substance; parameters: species or system P. falciparum D10 trophozoite lysates; single well
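Further: 30 min substrate incubation versus DMSO and 10 µM JCP410 controls.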

DPAP1, sequence (Q8IIJ9 whole entry, looked up): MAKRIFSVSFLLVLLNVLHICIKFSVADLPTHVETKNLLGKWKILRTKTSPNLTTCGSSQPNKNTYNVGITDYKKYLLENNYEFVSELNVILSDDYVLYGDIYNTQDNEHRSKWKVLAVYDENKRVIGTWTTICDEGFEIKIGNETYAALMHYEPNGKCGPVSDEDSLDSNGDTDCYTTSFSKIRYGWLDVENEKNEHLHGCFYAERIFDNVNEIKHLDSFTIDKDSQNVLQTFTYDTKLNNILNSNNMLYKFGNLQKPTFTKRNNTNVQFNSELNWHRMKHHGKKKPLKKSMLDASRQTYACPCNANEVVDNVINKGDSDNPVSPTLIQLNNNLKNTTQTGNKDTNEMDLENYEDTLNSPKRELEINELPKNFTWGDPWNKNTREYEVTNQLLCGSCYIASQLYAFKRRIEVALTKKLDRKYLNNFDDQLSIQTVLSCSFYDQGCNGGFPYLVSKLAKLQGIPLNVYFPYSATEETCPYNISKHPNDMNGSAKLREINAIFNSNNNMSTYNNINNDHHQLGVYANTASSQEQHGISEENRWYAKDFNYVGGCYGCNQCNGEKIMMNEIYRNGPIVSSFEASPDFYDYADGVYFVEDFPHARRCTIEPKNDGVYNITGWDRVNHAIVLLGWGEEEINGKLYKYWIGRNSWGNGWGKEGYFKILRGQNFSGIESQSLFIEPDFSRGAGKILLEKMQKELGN

| SMILES | % Inhibition @ 10 uM [%] |
| --- | --- |
| CCc1cc2c(=O)c(-c3nc4ccccc4s3)c(C)oc2cc1O | 3.8 |
| COc1ccc(S(=O)(=O)NC2CCCCC2)cc1-c1nnc2c3ccccc3c(C)nn12 | -6.71 |
| CC(C)CCn1c(SCC(=O)c2ccc(O)c(O)c2)nc2ccsc2c1=O | 16 |
| CCc1ccc(-c2[nH]nc3nc(-c4ccc(OC)cc4OC)cc(C(=O)O)c23)cc1 | 5.37 |
| CCOc1ccc(C(O)(CC)C(CN2CCCCC2)c2ccccc2)cc1 (stereo not drawn) | 7.28 |
| Cn1c(=O)c2c(nc(C(N)=O)n2C)n(C)c1=O | -6.69 |
| CN1CCN(C(=O)c2ccc(Cl)cc2)CC1 | -3.65 |
| O=C(c1cc2ccc3cccnc3c2[nH]1)N1CCN(Cc2ccccc2)CC1 | 4.44 |
| CCc1c(C)nc2cc(-c3ccc(OC)cc3)nn2c1O | -3.74 |
| Clc1ccccc1OCCCCN1CCCC1 | 1.35 |
| O=C(NCCc1ccccc1)c1cc(-c2ccc3c(c2)OCO3)on1 | -8.56 |
| CC(=O)Nc1ccc(NC(=O)c2cccc(Br)c2)cc1 | -3.13 |
| CC(=O)c1cnc2cc(-c3ccc(Cl)cc3)nn2c1C | 1.39 |
| Cc1cc(C(=O)O)c2cc(O)ccc2n1 | -1.97 |
| Cc1ccc(NC(=O)Nc2ccccc2)c(Br)c1 | -2.55 |
| Cc1ccc(Cl)cc1NC(=O)COc1ccc(S(=O)(=O)NC(C)C)cc1 | 5.31 |
| COCCCNC(=O)c1cc2c(Cl)nc3ccc(C)cc3c2s1 | -1.7 |
| COCc1cc(C)nc2sc3c(ncn4c5ccccc5nc34)c12 | -0.854 |
| C=CCn1c(SCC(=O)N2CCOCC2)nc2sc3c(c2c1=O)CCC3 | -4.4 |
| OCC1CCCCN1CCCc1ccccc1 (stereo not drawn) | 4.55 |
| Cc1nc2cc(-c3ccc(Cl)cc3)nn2c(C)c1CCC(=O)N1CCCC1 | -2.25 |
| CNC(=O)C1CCCN(c2nn3cc(-c4ccc(OC)cc4)nc3s2)C1 (stereo not drawn) | 2.47 |
| O=C(COc1ccc(Cl)cc1Cl)N1CCN(c2ccccc2)CC1 | 0.0657 |
| Cc1ccccc1C1C2=C(CCCC2=O)OC2=C1C(=O)CCC2 | -5.83 |
| CCOC(=O)C1CCCN(Cc2ccc(Br)s2)C1 (stereo not drawn) | -1.86 |
| N#C[C@H](CC(=O)OCc1ccccc1)NC(=O)[C@H](CC1CCCCC1)NC(=O)OCc1ccccc1 | -3.04 |

| SMILES | % Inhibition @ 10 uM [%] |
| --- | --- |
| CCCCN(C)C1CCN(CCC)CC1 | -0.0908 |
| Fc1ccc(-c2ncnn2-c2ccccc2C(F)(F)F)cc1 | 4.74 |
| COCCCNC(=O)Cn1c(-c2cccs2)cc2ccccc21 | -3.34 |
| CC1=CC2=NC(=O)/C(=C\c3cc(C)n(-c4cccc(Cl)c4C)c3C)C(=N)N2O1 | -1.43 |
| CCCNC(=O)CN(C)c1nn2c(=O)cc(C)nc2s1 | -7.54 |
| O=c1[nH]c(=O)n(CCc2ccccc2)c2c1C(C(F)(F)F)(C(F)(F)F)NC(c1ccco1)=N2 | 0.032 |
| CC(C)C(=O)n1nc(-c2cccnc2)nc1NCc1ccccc1 | -4.75 |
| O=C(CSc1ncccc1C(=O)O)NC1CCCCC1 | 1.16 |
| Cn1c(=O)n(Cc2ccccc2)c(=O)c2c1nc(NCC1CCCO1)n2Cc1ccccc1 (stereo not drawn) | -1.5 |
| N#Cc1c(-c2ccccc2)cc(C2CC2)nc1N | 3.16 |
| O=S(=O)(c1ccccc1)n1nnc2ccccc21 | 0.78 |
| CC(C)(C)Nc1nc(Cl)nc(NC2CCCCC2)n1 | 3 |
| O=C(NCC1CCCO1)C1CCCCN1S(=O)(=O)c1ccc(F)cc1 (stereo not drawn) | 3.34 |
| CCc1c(C)sc(NC(=O)c2cccs2)c1C#N | 2.69 |
| COc1ccccc1NC(=O)COc1ccc(S(=O)(=O)N2CCCC2)cc1 | 10.2 |
| FC(F)(F)c1ccc(-c2noc(Cc3ccccc3)n2)cc1 | -2.4 |
| CCc1ccc(NC(=O)CN(Cc2ccc(F)cc2)S(=O)(=O)c2ccccc2)cc1 | -7.32 |
| COc1ccc2[nH]cc(CCNC(=O)c3ccc(Cl)cc3)c2c1 | -1.86 |
| COc1ccc(CN2C(=O)C3C(c4ccc(C)cc4)OC4(C(=O)c5ccccc5C4=O)C3C2=O)cc1 (stereo not drawn) | 6 |
| CC1(NC(=O)NCc2ccccc2)CCS(=O)(=O)C1 (stereo not drawn) | -0.0267 |
| COc1ccc(-c2nnc(C3CCN(S(=O)(=O)c4ccc(C(C)(C)C)cc4)CC3)o2)cc1 | -4.74 |
| O=C(Cn1ncc2ccsc2c1=O)NCCc1ccc(Cl)cc1 | -1.21 |
| CCO/C(O)=C1\C(CC)=NC2=C(C(=O)CCC2)C1c1ccc(Cl)c(Cl)c1 (stereo not drawn) | 4.74 |
| Cc1ccc(F)c(NC(=O)Nc2cccc(Cl)c2)c1 | -2.18 |
| Cc1oc(-c2ccc(C(=O)NCCc3ccc(Cl)cc3)cc2)nc1CS(=O)c1ccccc1 (stereo not drawn) | -2.01 |
